Some of the results follow. These are further read-outs of the screen, such as a control signal, another cell line or another target. No call is given for them. For some of these results: The list favours compounds with an active or inconclusive main result. Potencies come from curve fits of mixed quality, noted in brackets.
Experiments:
[1] = qHTS drug screen for cell cycle checkpoint inhibitors in PARPi-resistant BRCA-mutant ovarian cancer cell lines. (AID 1963452); settings: PEO1/OlaR viability, CellTiter-Glo luminescence, 96 h
Summary of the method: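 PEO1, PEO4 and PEO1/OlaR ovarian cancer cells, 600 per well, exposed 96 h at 37C to a dilution series. Viability read by CellTiter-Glo luminescence, normalized to DMSO and empty wells; activity summarized as Z-AUC.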

[2] = qHTS for identification of novel therapeutic agents for treatment of microphthalmiaassociated transcription factor (MiT) renal cell carcinoma (RCC) (AID 1963991); settings: CellTiter-Glo, 48 h; for z-score: stronger effect = lower value
Summary of the method: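 Three TFE3-fusion RCC cell lines (UOK109, UOK124, UOK145), 500 cells/well, were exposed to the 1912-compound MIPE 4.0 library for 48 hours at 37 C. Viability was read by CellTiter-Glo luminescence, normalised to DMSO (100%) and empty wells (0%), with 11-concentration curve fits.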

[3] = TFE3-RCC UOK109 viability, measured here: UOK109 Z-AUC
[4] = TFE3-RCC viability, measured here: UOK124 Z-AUC
[5] = TFE3-RCC viability, measured here: UOK145 Z-AUC
[6] = TFE3-RCC viability, measured here: UOK145 cell viability
[7] = measured here: PEO1 parental viability
[8] = TFE3-RCC viability, measured here: UOK124 cell viability
Tags tell the direction and shape of the fitted curve.

Row | Structure (SMILES) | AC50 ([1]; measured here: PEO4 viability) | z-score [2, 3] | z-score [2, 4] | z-score [2, 5] | AC50 [2, 6] | AC50 [1, 7] | AC50 [2, 8]
1 | CN1CCN(c2ncc(-c3cc(Cl)cc(Cl)c3Cl)c(N)n2)CC1 | 13.8 µM [falling, partial curve, poor fit] | 0.0224 | 0.393 | 0.316 | 23.5 µM [falling, single point] | – | –
2 | COc1cc2ncnc(Nc3cc(Br)c(O)c(Br)c3)c2cc1OC | 1.55 µM [falling, partial curve, poor fit] | -2.6 | -0.535 | -1.87 | 0.0166 µM [falling, full curve] | – | –
3 | c1ccc(-c2nn3c(c2-c2ccnc4cc(OCCN5CCOCC5)ccc24)CCC3)nc1 | 0.49 µM [rising, partial curve, poor fit] | 0.206 | -0.47 | 0.326 | 4.69 µM [falling, partial curve] | – | –
4 | CN(C)c1ccc(C2Nc3ccc4ccccc4c3C3=C2C(=O)CC(C)(C)C3)cc1Br (configuration not stated) | 2.75 µM [rising, partial curve, poor fit] | -0.0824 | 0.546 | 0.221 | – | – | –
5 | CC(=O)NCCC(=O)N[C@@H](CCC(N)=O)C(=O)N[C@@H](CO)C(=O)N[C@@H](CCC(N)=O)C(=O)N[C@@H](CCC(N)=O)C(=O)N[C@H](C(=O)N[C@@H](Cc1ccccc1)C(=O)N[C@]1(C)CCCCCCC=CCCC[C@@](C)(C(=O)N[C@@H](CCC(N)=O)C(=O)N[C@@H](CC(N)=O)C(N)=O)NC(=O)[C@H](CC(C)C)NC(=O)[C@H](CC(C)C)NC(=O)[C@@H](CCCNC(=N)N)NC(=O)[C@H](Cc2c[nH]c3ccccc23)NC(=O)[C@H](CC(C)C)NC(=O)[C@H](CC(N)=O)NC1=O)[C@H](C)O | – | 0.56 | 0.614 | 0.769 | – | 0.977 µM [falling, partial curve, poor fit] | 37.2 µM [falling, single point]
6 | OCCC#Cc1nc(-c2ccc(F)cc2)c(-c2ccncc2)n1CCCc1ccccc1 | 27.5 µM [falling, single point] | 0.225 | 2.18 | 0.477 | 37.2 µM [falling, single point] | – | 20.9 µM [falling, partial curve]
7 | O=C1CCc2ccc(OCCCCN3CCN(c4cccc(Cl)c4Cl)CC3)cc2N1 | – | 0.873 | 0.326 | 0.731 | – | 15.5 µM [falling, partial curve] | 18.7 µM [falling, partial curve]
8 | O=c1cc(-c2ccc(O)c(O)c2)oc2cc(O)cc(O)c12 | 27.5 µM [falling, single point] | 0.344 | 0.793 | 0.597 | 37.2 µM [falling, partial curve, poor fit] | – | –
9 | CN(C)CCN1C(=O)c2cccc3cc(N)cc(c23)C1=O | – | -0.397 | -0.123 | -0.447 | 3.32 µM [falling, full curve] | 17.4 µM [falling, partial curve] | 3.72 µM [falling, full curve]
10 | O=S(=O)(c1cccc2cnccc12)N1CCCNCC1 | – | 1.02 | 0.711 | -0.129 | 37.2 µM [falling, partial curve, poor fit] | 19.5 µM [rising, partial curve, poor fit] | –
11 | CC(C)(C)c1nc(-c2cccc(NS(=O)(=O)c3c(F)cccc3F)c2F)c(-c2ccnc(N)n2)s1 | – | -0.332 | 0.573 | -0.585 | 1.32 µM [falling, partial curve, poor fit] | 24.5 µM [falling, single point] | –
12 | COC(=O)N1CCN(Cc2cccc(NC(=O)Nc3ccc(C)nc3)c2F)CC1 | – | 1.09 | 1.82 | 0.15 | – | 21.9 µM [falling, partial curve, poor fit] | 10.5 µM [falling, partial curve, poor fit]
13 | NC1(C(=O)N[C@@H](CCO)c2ccc(Cl)cc2)CCN(c2ncnc3[nH]ccc23)CC1 | – | 0.63 | 1.61 | 0.599 | 20.9 µM [falling, partial curve] | 15.5 µM [falling, partial curve, poor fit] | 0.469 µM [falling, partial curve]
14 | O=C(Nc1ccccc1Br)N[C@@H]1CCN(c2ccc(C(F)(F)F)cn2)C1 | – | 0.278 | 0.506 | 0.443 | – | 24.5 µM [falling, single point] | 16.6 µM [falling, partial curve]
15 | CC(C)n1cnc2c(NCCCCCCNC(=O)OC(C)(C)C)nc(NCCO)nc21 | – | 1.1 | -0.077 | 0.802 | – | 8.71 µM [falling, partial curve] | 11.8 µM [falling, partial curve, poor fit]
16 | C[C@H](NC(=O)c1sccc1OCc1ccc(Cl)cc1)c1ccccc1 | – | -0.216 | -0.204 | -0.128 | – | 8.71 µM [falling, partial curve, poor fit] | 23.5 µM [falling, partial curve, poor fit]

From PubChem BioAssay (NCATS)
